{"source": "PubChem BioAssay (Tox21)", "key": {"[1]": {"target": "Glucocorticoid receptor (Homo sapiens) (UniProt P04150)", "sequence (P04150 whole entry, looked up)": "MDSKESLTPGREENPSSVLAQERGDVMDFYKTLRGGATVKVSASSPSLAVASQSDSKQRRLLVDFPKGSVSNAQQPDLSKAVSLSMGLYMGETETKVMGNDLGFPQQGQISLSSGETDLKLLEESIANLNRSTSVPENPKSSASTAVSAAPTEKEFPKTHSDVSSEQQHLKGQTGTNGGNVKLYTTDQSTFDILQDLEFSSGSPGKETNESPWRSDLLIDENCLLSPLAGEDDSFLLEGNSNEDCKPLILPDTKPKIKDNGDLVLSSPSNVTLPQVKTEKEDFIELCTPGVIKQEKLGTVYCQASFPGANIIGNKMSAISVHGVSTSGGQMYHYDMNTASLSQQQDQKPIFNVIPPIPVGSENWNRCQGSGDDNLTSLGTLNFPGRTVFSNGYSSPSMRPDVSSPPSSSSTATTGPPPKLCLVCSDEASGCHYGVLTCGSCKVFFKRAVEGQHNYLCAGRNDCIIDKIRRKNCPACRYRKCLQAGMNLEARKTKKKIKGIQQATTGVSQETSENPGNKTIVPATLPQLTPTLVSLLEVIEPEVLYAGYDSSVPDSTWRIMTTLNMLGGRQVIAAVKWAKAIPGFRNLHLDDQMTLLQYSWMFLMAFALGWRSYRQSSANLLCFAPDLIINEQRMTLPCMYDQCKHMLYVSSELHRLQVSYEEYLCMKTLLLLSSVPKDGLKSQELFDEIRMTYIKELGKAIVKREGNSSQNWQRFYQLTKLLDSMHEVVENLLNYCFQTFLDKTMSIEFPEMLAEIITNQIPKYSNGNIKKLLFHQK", "assay": "qHTS assay to identify small molecule antagonists of the glucocorticoid receptor (GR) signaling pathway (AID 720692; active = well fitted inhibition curve with a large enough effect in the signal ratio in the repeat runs, not every such curve was filed as active; inconclusive = weak or mixed curves, or effect the other way; inactive = no such curve, though single readings can be large or run the other way; the % refers to the signal ratio; for activity change, negative = inhibition: % is set by controls: 0 for no effect and ±100 for the full control effect)", "conditions": "GR-bla HeLa, beta-lactamase FRET ratio, dexamethasone-stimulated, 18 h; activity change, negative = inhibition: at 58.5 µM (top of the series) unless noted", "summary_of_the_method": "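Cells plated, rested 4 h at 37 C/5% CO2; compounds in DMSO pin-transferred; dexamethasone added to 5 nM final; 18 h at 37 C; B/G FRET substrate added, 2 h room temperature; fluorescence measured.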"}, "[2]": {"assay": "qHTS assay to identify small molecule antagonists of the glucocorticoid receptor (GR) signaling pathway - cell viability counter screen (AID 720693); note: nearly all actives have a fitted effect of over 55% in size", "conditions": "GR-bla HeLa viability, CellTiter-Glo luminescence, 18 h, with 5 nM dexamethasone present; viability change, negative = cytotoxic: at 58.5 µM (top of the series) unless noted"}, "[3]": {"assay": "qHTS assay to identify small molecule antagonists of the androgen receptor (AR) signaling pathway - cell viability counter screen (AID 743033; note: nearly all actives have a fitted effect of over 45% in size)", "conditions": "AR-bla HEK293 viability, CellTiter-Glo luminescence, 16 h; activity change, negative = cytotoxicity: at 58.5 µM (top of the series) unless noted"}, "[4]": {"target": "Androgen receptor (Homo sapiens) (UniProt P10275)", "sequence (P10275 whole entry, looked up)": "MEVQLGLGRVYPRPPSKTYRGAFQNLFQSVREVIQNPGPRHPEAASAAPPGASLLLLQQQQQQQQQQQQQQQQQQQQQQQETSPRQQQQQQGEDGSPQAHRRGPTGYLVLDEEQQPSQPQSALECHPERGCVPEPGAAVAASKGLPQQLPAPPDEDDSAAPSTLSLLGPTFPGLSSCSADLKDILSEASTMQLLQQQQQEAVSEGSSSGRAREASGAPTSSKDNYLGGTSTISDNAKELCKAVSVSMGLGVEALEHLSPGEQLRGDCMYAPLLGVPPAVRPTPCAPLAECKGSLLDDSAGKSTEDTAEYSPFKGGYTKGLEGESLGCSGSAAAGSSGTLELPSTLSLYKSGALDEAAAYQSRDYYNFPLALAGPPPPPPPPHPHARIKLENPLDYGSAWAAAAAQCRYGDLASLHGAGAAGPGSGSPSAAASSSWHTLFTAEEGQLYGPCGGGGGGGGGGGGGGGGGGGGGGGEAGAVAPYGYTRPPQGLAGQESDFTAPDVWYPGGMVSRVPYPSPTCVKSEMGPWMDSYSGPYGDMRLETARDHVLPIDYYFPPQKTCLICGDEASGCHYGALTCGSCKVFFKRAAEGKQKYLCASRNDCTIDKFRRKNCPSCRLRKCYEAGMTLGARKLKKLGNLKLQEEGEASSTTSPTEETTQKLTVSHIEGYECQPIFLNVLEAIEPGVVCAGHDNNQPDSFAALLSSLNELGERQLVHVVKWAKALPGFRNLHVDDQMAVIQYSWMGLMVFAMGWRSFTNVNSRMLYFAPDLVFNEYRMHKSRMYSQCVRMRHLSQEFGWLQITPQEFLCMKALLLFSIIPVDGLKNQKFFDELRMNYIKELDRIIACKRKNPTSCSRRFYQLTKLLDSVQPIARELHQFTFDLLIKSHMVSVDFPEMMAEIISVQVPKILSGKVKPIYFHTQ", "assay": "qHTS assay to identify small molecule antagonists of the androgen receptor (AR) signaling pathway (AID 743035; active = well fitted inhibition curve with a large enough effect in the signal ratio in the repeat runs, not every such curve was filed as active; inconclusive = weak or mixed curves, or effect the other way; inactive = no such curve, though single readings can be large or run the other way; the % refers to the signal ratio; for activity change, negative = inhibition: % is set by controls: 0 for no effect and ±100 for the full control effect)", "conditions": "HEK293 AR-UAS-bla, R1881-stimulated, beta-lactamase FRET, 16 h; activity change, negative = inhibition: at 58.5 µM (top of the series) unless noted", "summary_of_the_method": "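Antagonism is scored as loss of R1881-driven beta-lactamase reporter expression in HEK293 cells carrying the reporter under a UAS element, after 16 h co-treatment at 37C and a 2 h room-temperature FRET substrate read.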"}, "[5]": {"assay": "qHTS assay for identifying genotoxic compounds that show differential cytotoxicity against isogenic chicken DT40 cell lines with known DNA damage response pathways - wild type cell line (AID 743012); note: nearly all actives have a fitted effect of over 60% in size; for activity change, negative = cytotoxicity: % is set by controls: 0 for no effect and ±100 for the full control effect", "conditions": "DT40 wild type chicken cells viability, CellTiter-Glo, 40 h; activity change, negative = cytotoxicity: at 68.4 µM (top of the series) unless noted", "summary_of_the_method": "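Cells (DT40 wild type, 300/well) are treated with DMSO-dissolved compounds after a ~0.5 h pre-incubation and kept 40 h at 37 C/5% CO2. Viability is then measured by CellTiter-Glo luminescence following 30 min at room temperature.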"}, "[6]": {"assay": "qHTS assay for identifying genotoxic compounds that show differential cytotoxicity against isogenic chicken DT40 cell lines with known DNA damage response pathways - Rev3 mutant cell line (AID 743014); note: nearly all actives have a fitted effect of over 55% in size; for activity, negative = cytotoxicity: % is set by controls: 0 for no effect and ±100 for the full control effect", "conditions": "chicken DT40 Rev3-/- viability, CellTiter-Glo, 40 h; activity, negative = cytotoxicity: at 68.4 µM (top of the series) unless noted"}, "[7]": {"assay": "qHTS assay for identifying genotoxic compounds that show differential cytotoxicity against isogenic chicken DT40 cell lines with known DNA damage response pathways - Rad54/Ku70 mutant cell line (AID 743015); note: nearly all actives have a fitted effect of over 60% in size", "conditions": "DT40 Rad54/Ku70 mutant viability, CellTiter-Glo, 40 h; activity change, negative = cytotoxicity: at 66.8 µM (top of the series)"}}, "note": "“And” between values parts separate entries of the source, which are not always exact repeats. Equal entries are not always repeated. Inconclusive means that the source gave no clear call. Such entries were picked first, then a sample of the others. Potencies beside an inconclusive call are fits to weak or partial responses and may not hold up. The source made the active and inactive calls. Unless noted, calls come from the whole dose curve; as a rule, active = well fitted curve in the direction sought with a large enough effect in the repeat runs; inconclusive = weak or mixed curves; inactive = no such curve, though single readings can be large; an effect the other way counts as inactive or inconclusive. Potency is the fitted concentration of half-maximal effect; tags give direction and shape of the fitted curve or compound fluorescence and quenching."}
{"smiles": "CNC(=S)NC", "values": [{"measurement": "activity change, negative = inhibition", "setting": "[1]", "result": "inconclusive: -17.3%"}, {"measurement": "Potency", "setting": "[2]", "result": "inconclusive: 43.6 µM [cytotoxic, partial curve]"}, {"measurement": "Potency", "setting": "[3]", "result": "inconclusive: 43.6 µM [cytotoxic, partial curve]"}, {"measurement": "Potency", "setting": "[4]", "result": "inconclusive: 43.6 µM [rising, partial curve, poor fit]"}]}
{"smiles": "CC(C)(C)NCC(O)COc1ccc(NC(=O)NC2CCCCC2)cc1", "note": "(centres undefined)", "values": [{"measurement": "Potency", "setting": "[1]", "result": "inactive"}, {"measurement": "Potency", "setting": "[5]", "result": "active: 29.8 µM"}, {"measurement": "Potency", "setting": "[6]", "result": "inconclusive: 33.5 µM [cytotoxic, single point]"}]}
{"smiles": "OCCC1CCCCN1", "note": "(centres undefined)", "values": [{"measurement": "Potency", "setting": "[1]", "result": "inconclusive: 43.9 µM [activator, partial curve]"}, {"measurement": "Potency", "setting": "[5]", "result": "inconclusive: 77.4 µM [rising, single point]"}]}
{"smiles": "CC1=CC(=O)NS(=O)(=O)O1", "values": [{"measurement": "Potency", "setting": "[1]", "result": "inactive"}, {"measurement": "Potency", "setting": "[5]", "result": "inactive"}]}
{"smiles": "CCOC(=O)NCCC[Si](OCC)(OCC)OCC", "values": [{"measurement": "activity change, negative = inhibition", "setting": "[1]", "result": "inconclusive: -20.5%"}, {"measurement": "Potency", "setting": "[5]", "result": "inactive"}]}
{"smiles": "CCC(C)(C)C", "values": [{"measurement": "activity change, negative = inhibition", "setting": "[1]", "result": "inconclusive: -13% [at 78.9 µM]"}, {"measurement": "Potency", "setting": "[5]", "result": "inactive"}]}
{"smiles": "CN(C)CCC(c1ccc(Cl)cc1)c1ccccn1", "note": "(centres undefined)", "values": [{"measurement": "Potency", "setting": "[1]", "result": "inactive"}, {"measurement": "Potency", "setting": "[5]", "result": "inconclusive: 77.1 µM [cytotoxic, single point]"}, {"measurement": "Potency", "setting": "[6]", "result": "inconclusive: 77.1 µM [cytotoxic, single point]"}]}
{"smiles": "CC(CCO)CCc1ccccc1", "note": "(centres undefined)", "values": [{"measurement": "Potency", "setting": "[1]", "result": "inactive"}, {"measurement": "Potency", "setting": "[5]", "result": "inconclusive: 68.6 µM [cytotoxic, single point]"}, {"measurement": "Potency", "setting": "[6]", "result": "inconclusive: 24.3 µM [cytotoxic, partial curve]"}]}
{"smiles": "O=C(O)c1cn(-c2ccc(F)cc2)c2cc(N3CCNCC3)c(F)cc2c1=O", "values": [{"measurement": "Potency", "setting": "[1]", "result": "inactive"}, {"measurement": "Potency", "setting": "[5]", "result": "inconclusive: 33.5 µM [cytotoxic, partial curve, poor fit]"}]}
{"smiles": "CCC(=O)/C=C/c1ccc(OC)cc1", "values": [{"measurement": "activity change, negative = inhibition", "setting": "[1]", "result": "inconclusive: -2.67%"}, {"measurement": "Potency", "setting": "[5]", "result": "inconclusive: 68.6 µM [cytotoxic]"}, {"measurement": "Potency", "setting": "[6]", "result": "inconclusive: 77 µM [cytotoxic, partial curve, poor fit]"}]}
{"smiles": "CC(=O)CCc1ccc(OC(C)=O)cc1", "values": [{"measurement": "Potency", "setting": "[1]", "result": "inactive"}, {"measurement": "Potency", "setting": "[5]", "result": "inactive"}, {"measurement": "Potency", "setting": "[6]", "result": "inconclusive: 24.3 µM [cytotoxic, partial curve]"}]}
{"smiles": "N=C(N)c1ccc(OCCCOc2ccc(C(=N)N)cc2)cc1", "values": [{"measurement": "activity change, negative = inhibition", "setting": "[1]", "result": "inconclusive: 53.6%"}, {"measurement": "Potency", "setting": "[5]", "result": "active: 4.22 µM"}]}
{"smiles": "COC(C)(C)CC(C)=O", "values": [{"measurement": "Potency", "setting": "[1]", "result": "inconclusive: 61.6 µM [activator, single point]"}, {"measurement": "Potency", "setting": "[5]", "result": "inconclusive: 61.1 µM [cytotoxic, single point]"}]}
{"smiles": "COc1c2ccoc2cc2oc(=O)ccc12", "values": [{"measurement": "Potency", "setting": "[1]", "result": "inactive"}, {"measurement": "Potency", "setting": "[5]", "result": "inconclusive: 2.22 µM [rising, full curve, poor fit]"}]}
{"smiles": "C/C=C/C=C/CCCCCCCO", "values": [{"measurement": "Potency", "setting": "[1]", "result": "active: 38.9 µM"}, {"measurement": "Potency", "setting": "[5]", "result": "active: 21.7 µM"}, {"measurement": "Potency", "setting": "[3]", "result": "inconclusive: 43.6 µM [cytotoxic, partial curve, poor fit]"}]}
{"smiles": "CCCOc1ccc(S(=O)(=O)N2CCN(CC)CC2)cc1-c1nc2c(CC)n(Cc3ccccn3)nc2c(=O)[nH]1", "values": [{"measurement": "activity change, negative = inhibition", "setting": "[1]", "result": "inconclusive: -10.4%"}, {"measurement": "Potency", "setting": "[5]", "result": "inconclusive: 68.6 µM [cytotoxic, single point]"}, {"measurement": "Potency", "setting": "[6]", "result": "inconclusive: 68.6 µM [cytotoxic]"}, {"measurement": "Potency", "setting": "[7]", "result": "inconclusive: 68.6 µM [cytotoxic, single point]"}]}
{"smiles": "O=C(C(=O)c1ccc(Br)cc1)c1ccc(Br)cc1", "values": [{"measurement": "Potency", "setting": "[1]", "result": "inactive"}, {"measurement": "Potency", "setting": "[5]", "result": "inactive"}, {"measurement": "Potency", "setting": "[6]", "result": "inactive"}, {"measurement": "Potency", "setting": "[4]", "result": "inactive"}]}
{"smiles": "CC(Cc1ccccc1)(NC(=O)CN)c1ccccc1", "note": "(centres undefined)", "values": [{"measurement": "activity change, negative = inhibition", "setting": "[1]", "result": "inconclusive: 2.26%"}, {"measurement": "Potency", "setting": "[5]", "result": "inconclusive: 29.8 µM [cytotoxic, partial curve]"}, {"measurement": "Potency", "setting": "[7]", "result": "inconclusive: 33.5 µM [cytotoxic, single point]"}]}
{"smiles": "COc1ccnc(CS(=O)c2nc3ccc(OC(F)F)cc3[nH]2)c1OC", "note": "(centres undefined)", "values": [{"measurement": "activity change, negative = inhibition", "setting": "[1]", "result": "inconclusive: 7.33%"}, {"measurement": "Potency", "setting": "[5]", "result": "inconclusive: 33.5 µM [cytotoxic]"}, {"measurement": "Potency", "setting": "[6]", "result": "inconclusive: 33.5 µM [cytotoxic, single point]"}, {"measurement": "Potency", "setting": "[7]", "result": "inconclusive: 33.5 µM [cytotoxic, single point]"}]}
{"smiles": "NC(=O)COCCN1CCN(C(c2ccccc2)c2ccc(Cl)cc2)CC1", "note": "(centres undefined)", "values": [{"measurement": "Potency", "setting": "[1]", "result": "inactive"}, {"measurement": "Potency", "setting": "[5]", "result": "active: 33.5 µM"}, {"measurement": "Potency", "setting": "[7]", "result": "active: 26.6 µM"}, {"measurement": "Potency", "setting": "[4]", "result": "inactive"}]}
{"smiles": "O=C(c1ccccc1)c1ccc(O)c(O)c1O", "values": [{"measurement": "activity change, negative = inhibition", "setting": "[1]", "result": "inconclusive: -25.8%"}, {"measurement": "Potency", "setting": "[5]", "result": "inconclusive: 69.1 µM [cytotoxic, single point] and inconclusive: 68.6 µM [cytotoxic, single point]"}, {"measurement": "Potency", "setting": "[6]", "result": "inconclusive: 69.1 µM [cytotoxic]"}, {"measurement": "Potency", "setting": "[7]", "result": "inconclusive: 69.1 µM [cytotoxic, single point]"}]}
{"smiles": "CCCCCCCCC/C=C/CC1CC(=O)OC1=O", "note": "(centres undefined)", "values": [{"measurement": "Potency", "setting": "[1]", "result": "inconclusive: 15.6 µM [inhibitor, full curve] and active: 49 µM"}, {"measurement": "Potency", "setting": "[5]", "result": "inconclusive: 54.5 µM [cytotoxic, single point]"}, {"measurement": "Potency", "setting": "[6]", "result": "inconclusive: 68.9 µM [cytotoxic, single point]"}, {"measurement": "Potency", "setting": "[7]", "result": "inactive and inconclusive: 68.6 µM [cytotoxic, single point]"}]}
{"smiles": "C/C=C1/CC2C=CC1C2", "note": "(centres undefined)", "values": [{"measurement": "Potency", "setting": "[1]", "result": "inconclusive: 30.9 µM [inhibitor, partial curve, poor fit]"}, {"measurement": "Potency", "setting": "[5]", "result": "inactive"}, {"measurement": "Potency", "setting": "[6]", "result": "inconclusive: 54.5 µM [cytotoxic, partial curve, poor fit]"}, {"measurement": "Potency", "setting": "[7]", "result": "inconclusive: 68.6 µM [cytotoxic, single point]"}]}
